From PMC13083723 (Patterns, 2026) come the findings set out here.

Molecules are shown by their SMILES. About 190 (3.5%) of roughly 5,400 compounds showed an effect of 50% or more. Some of the results follow. Positions of bridges follow the written chain, without caps; N, C: chain ends. Non-standard residues stand in square brackets, D forms with d. Residues, ends and D or L forms follow the SMILES beside them. *: point of attachment. dPhe(4-NHCONH2) = NC(=O)Nc1ccc(C[C@@H](N)C(=O)O)cc1; Dihydroorotyl(S) = O=C1C[C@@H](C(=O)*)NC(=O)N1; dPhe(4-Cl) = N[C@H](Cc1ccc(Cl)cc1)C(=O)O; Phe(4-NH2) = Nc1ccc(C[C@H](N)C(=O)O)cc1; d2Nal = N[C@H](Cc1ccc2ccccc2c1)C(=O)O; Lys(iPr) = CC(C)NCCCC[C@H](N)C(=O)O; d3Pal = N[C@H](Cc1cccnc1)C(=O)O

The assay relates to Vero-E6. Nature of the assay: primary screen, phospholipidosis by LipidTOX staining; higher = more effect of the substance. To be noted: 10 µM. In short, it runs like this:
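Drug-induced phospholipidosis detected with HCS LipidTOX Red reagent in Vero-E6 cells. Compounds tested at 10 μM, with amiodarone (10 μM) as positive control and DMSO (0.1 v/v %) as vehicle.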
With `CN(C)C(=O)COC(=O)Cc1ccc(OC(=O)c2ccc(NC(=N)N)cc2)cc1`, the result_ITMP is -0.95%.
To `COc1ccc(Cc2cnc(N)nc2N)cc1OC` belongs -5.91%; to `CC(C)C[C@@H]1NC(=O)[C@@H](C(C)C)NC(=O)[C@@H]2CCCN2C(=O)[C@@H](CC(=O)O)NC(=O)[C@@H](Cc2c[nH]c3ccccc23)NC1=O` (cyclo(L[dW][dD]P[dV])), -4.98%.
Consider `COc1cc(CN(CCN)C(=O)c2cccs2)ccc1OCc1ccccc1`, for which the result_ITMP was found to be 85.4%.
The value for `CC(Cc1ccccc1)(NC(=O)CN)c1ccccc1` (stereo not drawn) was 8.52%; that for `CCCC(C)(COC(N)=O)COC(=O)NC(C)C` (stereo not drawn) was -1.53%.
To `CCC1(C)CC(=O)NC(=O)C1` belongs -1.29%; to `N=C(N)NC(=O)c1nc(Cl)c(N)nc1N`, -2.3%.
Regarding `CC(=O)[C@H]1CCC2C3CCC4=CC(=O)CC[C@]4(C)C3CC[C@@]21C` (stereo partly drawn), the result_ITMP was -2.09%.
The value for `CCCCCCCCCCC(O)C1C=CC2C(=O)N(c3ccccc3)C(=O)C2N1Nc1ccc([N+](=O)[O-])cc1` (stereo not drawn) was -1.8%; that for `O=C(CO)[C@@H](O)[C@@H](O)[C@H](O)CO` was -3.35%.
The value for `Nc1cccc2c(=O)[nH][nH]c(=O)c12` was -1.77%.
As for `NC(CSC(c1ccccc1)(c1ccccc1)c1ccccc1)C(=O)O` (stereo in doubt), the result_ITMP is -1.96%.
To `COc1cccc(OC)c1OCCNCC1COc2ccccc2O1` (stereo not drawn) belongs -4%; to `O=C1NCN(c2ccccc2)C12CCN(CCCC(c1ccc(F)cc1)c1ccc(F)cc1)CC2`, 1.98%; to `O=C(Nc1ccc(-c2ccnc(Nc3ccc(N4CCOCC4)cc3)n2)cc1)[C@@H]1CCCN1`, 26.6%.
Turning to `CC(C)(C)C(=O)OCOC(=O)[C@@H]1N2C(=O)[C@@H](NC(=O)[C@H](N)c3ccccc3)[C@H]2SC1(C)C`, the result_ITMP is listed as -4.27%.
The value for `CCC(=O)N1CCOc2c(cc(-c3ccc(OC)c(OC)c3)cc2OC[C@H]2CCCN(C)C2)C1` was 17.6%; that for `COc1ccc(CN(C(=O)[C@@H](N)Cc2c(C)cc(C(N)=O)cc2C)[C@@H](C)c2ncc(-c3ccccc3)[nH]2)cc1C(=O)O` was -0.29%.
The value for `CCS(=O)(=O)N(C)[C@H]1c2cc(C#N)ccc2OC(C)(C)[C@@H]1O` was -6.66%.
The value for `Cc1cc(C2CCCCC2)n(O)c(=O)c1` was 1.78%; that for `CC1=C(C(=O)OC(C)C)C(c2cccc([N+](=O)[O-])c2)C(C(=O)OC2CN(C(c3ccccc3)c3ccccc3)C2)=C(N)N1` (stereo not drawn) was -9.99%; that for `COc1cc(C(=O)NS(=O)(=O)c2ccccc2C)ccc1Cc1cn(C)c2ccc(NC(=O)OC3CCCC3)cc12` was -4.05%.
Regarding `CN[C@H]1CN(c2ccc3c(=O)c(C(=O)O)cn(-c4nccs4)c3n2)C[C@@H]1OC`, the result_ITMP is -1.77%.
On to `Cl[C@H]1[C@H](Cl)[C@@H](Cl)[C@@H](Cl)[C@H](Cl)[C@H]1Cl`, for which the result_ITMP is -3.66%.
Consider `CC(=O)N[C@H](Cc1ccc2ccccc2c1)C(=O)N[C@H](Cc1ccc(Cl)cc1)C(=O)N[C@H](Cc1cccnc1)C(=O)N[C@@H](CO)C(=O)N[C@@H](Cc1ccc(NC(=O)[C@@H]2CC(=O)NC(=O)N2)cc1)C(=O)N[C@H](Cc1ccc(NC(N)=O)cc1)C(=O)N[C@@H](CC(C)C)C(=O)N[C@@H](CCCCNC(C)C)C(=O)N1CCC[C@H]1C(=O)N[C@H](C)C(N)=O` (Ac-[d2Nal][dPhe(4-Cl)][d3Pal]S[Phe(4-NH2)](Dihydroorotyl(S))[dPhe(4-NHCONH2)]L[Lys(iPr)]P[dA]-NH2), for which the result_ITMP is on record as -13.2%.
The value for `CNC(=O)c1ccccc1Nc1nc(Nc2ccc3c(c2OC)CCC[C@H](N2CCN(CCO)CC2)C3)ncc1Cl` was 139%; that for `CCCn1c(=O)c2[nH]c(-c3cnn(Cc4cccc(C(F)(F)F)c4)c3)nc2n(CC)c1=O` was -2.26%.
`O=C(O)c1cc(=O)c2ccccc2o1`: the result_ITMP is reported as -0.64%.
As to `Oc1cc(O)c2cc(O)c(-c3cc(O)c(O)c(O)c3)[o+]c2c1`, the result_ITMP is recorded as -9.23%.
On to `CCC(CC)C(c1ccc(Nc2nc3ccccc3s2)cc1)n1cncn1` (stereo not drawn), for which the result_ITMP was -2.26%.
To `Fc1ccc(-c2nc(-c3c(F)cccc3F)[nH]c2-c2ccncc2)cc1` belongs -0.33%.
The value for `Cc1ccc2c(c1)C1(CCN(CCc3nc(-c4ccccc4)oc3C)CC1)OC(=O)N2` was -2.38%; that for `NCCCC[C@H](NC(=O)[C@@H]1CCCN1C(=O)[C@@H]1CSSC[C@H](NC(=O)CNC(=O)CNC(=O)CN)C(=O)N[C@@H](Cc2ccc(O)cc2)C(=O)N[C@@H](Cc2ccccc2)C(=O)N[C@@H](CCC(N)=O)C(=O)N[C@@H](CC(N)=O)C(=O)N1)C(=O)NCC(N)=O` (H-GGGCYFQNCPKG-NH2; disulfide 4-9) was 0.09%.
To `Oc1ccc(Cl)cc1Cc1cc(Cl)ccc1O` belongs -6.35%; to `NS(=O)(=O)c1cc(C(=O)O)c(NCc2ccco2)cc1Cl`, -2.4%; to `NC(=O)CN1CC(c2ccccc2)CC1=O` (stereo not drawn), -1.72%.
For `CCOc1cc([C@@H](CS(C)(=O)=O)N2C(=O)c3cccc(NC(C)=O)c3C2=O)ccc1OC`, the result_ITMP was -5.1%.
The value for `C[C@]12CCC(=O)C[C@@H]1CC[C@@H]1[C@@H]2CC[C@]2(C)C=CC[C@@H]12` was -0.52%; that for `O=C1Nc2ccc(Cl)c3c2C1(CCCCN1CC=C(c2ccc(Cl)cc2)CC1)CCC3` (stereo not drawn) was 70.2%.
On to `Nc1nc2[nH]nnc2c(=O)[nH]1`, for which the result_ITMP is 1.34%.
The value for `NC(=O)c1ncn([C@@H]2O[C@H](CO)[C@@H](O)[C@H]2O)n1` was -3.24%.
Consider `CCC(CC)(CC(=O)Nc1cccc(/C=C/c2nc(C3CCC3)cs2)c1)C(=O)O`, for which the result_ITMP is listed as -1.87%.
To `O=C(NCc1ccncc1)C12CC3CC(C1)CC(c1ccc(Cl)cc1)(C3)C2` belongs 3.36%.
Take `CCCCCCCCCCCCCCCCNc1ccc(C(=O)O)cc1`: the result_ITMP is on record as 0.86%.
Turning to `CCOC(=O)[C@H](CCc1ccccc1)N[C@@H](C)C(=O)N1[C@H](C(=O)O)C[C@@H]2CCC[C@@H]21`, the result_ITMP is given as -13.1%.
As to `Nc1nc(=O)n([C@H]2C[C@H](O)[C@@H](CO)O2)cc1F`, the result_ITMP was 1.64%.
The value for `CC[C@@]1(O)C(=O)OCc2c1cc1n(c2=O)Cc2cc3c([N+](=O)[O-])cccc3nc2-1` was 43%.
The value for `CNC(=O)c1ccc(-c2cnc3ncc(Cc4ccc5ncccc5c4)n3n2)cc1F` was 0.88%.
In the case of `CN1CCN(C(=O)C2C(C(=O)O)[C@@H]3CC[C@H]2O3)CC1` (stereo partly drawn), the result_ITMP is listed as 0.66%.
The value for `Cc1ccc(S(=O)(=O)n2c(N)nc3ccccc32)cc1` was -3.34%; that for `CC(O)CN1CCN(CC(=O)[O-])CCN(CC(=O)[O-])CCN(CC(=O)[O-])CC1.[Gd+3]` (stereo not drawn) was -2.95%; that for `CC(C)c1ccc(C(=O)c2cccs2)c(SCCCCCCCCN(C)C)n1` was 77%.
With `Cc1cc(OCC(=O)O)cc(C)c1Cc1ccc(O)c(C(C)C)c1`, the result_ITMP is on record as -1.53%.
To `CC(C)COCC(CN(Cc1ccccc1)c1ccccc1)N1CCCC1` (stereo not drawn) belongs 66.8%.
As to `CCN(Cc1ccccc1)C(=O)Cn1c(=O)n(C)c2cnc(-c3ccccc3)nc21`, the result_ITMP is reported as -3.61%.
Consider `COc1cc2c(cc1OC(C)C)[C@H](c1ccc(Cl)cc1)N(c1ccc(N(C)C[C@H]3CC[C@H](N4CCN(C)C(=O)C4)CC3)cc1)C(=O)C2`, for which the result_ITMP came out at 19.8%.
To `COc1ccc(-c2nc3cc(C4=NNC(=O)CC4C)ccc3[nH]2)cc1` (stereo not drawn) belongs 0.03%; to `CCCn1c(=O)[nH]c2nc(-c3ccc(S(=O)(=O)N4CCN(c5ccc(Cl)cc5)CC4)cc3)[nH]c2c1=O`, -1.38%; to `NCC(=O)Nc1ccc(-n2nc(C(F)(F)F)cc2-c2ccc3c(ccc4ccccc43)c2)cc1`, 38.8%.
To `CO[C@H]1C[C@H](O[C@H]2CC[C@@]3(C)[C@H](CC[C@@H]4[C@@H]3CC[C@]3(C)[C@@H](C5=CC(=O)OC5)[C@@H](OC(C)=O)C[C@]43O)C2)O[C@@H](C)[C@@H]1O` belongs -2.23%; to `COc1ccc(-c2cnc3c(-c4cccc5ncccc45)cnn3c2)cc1`, -5.17%.
To `NS(=O)(=O)c1cc2c(cc1Cl)N=CNS2(=O)=O` belongs -0.42%.
With `COc1ccccc1CC(=N)N1C[C@@H]2C(=O)CCC(c3ccccc3)(c3ccccc3)[C@@H]2C1`, the result_ITMP is recorded as -1.05%.
The value for `CNC(=O)[C@@H](Cc1ccccc1)N(C)C(=O)[C@@H](Cc1ccc2ccccc2c1)N(C)C(=O)/C=C/CC(C)(C)N` was 4.05%; that for `COc1nccc(-c2c(-c3ccc(F)cc3)ncn2[C@H]2CC[C@H](O)CC2)n1` was -2.01%.
Turning to `CNS(=O)(=O)Cc1ccc2[nH]cc(CCN(C)C)c2c1`, the result_ITMP was -1.88%.
As to `O=c1c(O)c(-c2ccc(O)c(O)c2)oc2cc(O)ccc12`, the result_ITMP is given as -3.47%.
For the molecule `COc1c(C)cnc(Cn2cc(C#CCC(C)(C)O)c3c(Cl)nc(N)nc32)c1C`, the result_ITMP is listed as -0.95%.
To `COc1cc2ncnc(Oc3cccc(NC(=O)Nc4cc(C(C)(C)C(F)(F)F)on4)c3)c2cc1OC` belongs -6.16%; to `N[C@@]1(C(=O)O)CC[C@H]2[C@H](C(=O)O)[C@H]21`, -2.09%; to `O=C(CCCl)NCc1ccccc1`, 2.06%.
Take `Cc1cccc(/C=N/Nc2cc(N3CCOCC3)n3nc(-c4ccncc4)cc3n2)c1`: the result_ITMP was -0.73%.
`OC(c1ccccc1)(c1ccccc1)C1CCNCC1`: the result_ITMP is listed as 23.1%.
Consider `CC[C@@]1(O)C(=O)OCc2c1cc1n(c2=O)Cc2c-1nc1cc(F)c(C)c3c1c2[C@@H](N)CC3`, for which the result_ITMP worked out at 35.9%.
On to `CCCOc1ccc2c(c1)CC[C@@H]1[C@@H]2CC[C@]2(C)[C@@H](OC)CC[C@@H]12`, for which the result_ITMP is recorded as -0.32%.
For `OCCNC1CCCc2c1[nH]c1ccc(-c3ccccc3)cc21` (stereo not drawn), the result_ITMP was 89.4%.
For `O=C(Nc1ccc(S(=O)(=O)Nc2nccs2)cc1)C(c1ccccc1)c1ccccc1`, the result_ITMP is -1.38%.
